The results in this text go back to patent US20200361908A1, “CRYSTALS OF ANILINE PYRIMIDINE COMPOUND SERVING AS EGFR INHIBITOR” (CHIA TAI TIANQING PHARMACEUTICAL GROUP CO., LTD., priority 2016, published 2020).

For the assay, the target named is EGFR-L858R/T790M (DM) (Homo sapiens, UniProt P00533, L858R/T790M). Conditions: ratio of IC50 EGFR (WT) to IC50 EGFR-L858R/T790M (DM).

Where a name gives a salt, the structure may show the parent alone.

As for `C=CC(=O)Nc1cc(Nc2nccc(-n3c(=O)n(C)c4ccccc43)n2)c(OC)cc1N(C)CCN(C)C` [Example 1, N-(2-((2-(dimethylamino)ethyl)(methyl)amino)-4-methoxy-5-(4-(3-methyl-2-oxo-2,3-dihydro-1H-benzo[d]imidazol-1-yl)pyrimidin-2-ylamino)phenyl) acrylamide (I) hydrochloride], the “Enzyme Activity WT/DM” value was 12.6.
